80 compounds from ChEMBL document CHEMBL1201862, “PubChem BioAssay data set” (2004) can be followed below.

Structures are written as SMILES.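 Five concentrations, 48 hours, 96-well plates. Here, GI50 denotes the concentration required for 50% inhibition of growth.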 Active and inactive are the calls of the source. Rule as the data show it: active = GI50 up to about 1.1 µM and inactive = higher.

The subject of the test is NCI-H322M. Nature of the test: growth of human tumour cells (NCI), 48 h.
`CC(C)c1ccc2nc3ccc(C(=O)NCCN4CCN(c5ccccc5)CC4)cn3c(=O)c2c1`: the GI50 is inactive: 84.9 µM.

With `Clc1ccc2nc3c(c(-c4ccccc4)nn3-c3ccccc3)c(-c3ccccc3)c2c1`, the GI50 is inactive: > 100 µM. Turning to `COc1ccc2c(c1)CCc1c(-c3noc4c3CCc3cc(OC)ccc3-4)noc1-2`, the GI50 is inactive: > 100 µM. As for `CN(C)CCNCCCNc1c2ccccc2nc2cccc([N+](=O)[O-])c12`, the figure is active: < 0.024 µM. Take `CCOC(=O)C1=C(O)C(=O)c2c(OC)ccc(OC)c2C1=O`: the GI50 was inactive: > 100 µM.

Take `Cc1cc2c(Br)cc(Br)c(O)c2nc1C(=O)c1ccccc1`: the GI50 is inactive: 15.5 µM. The result for `O=C1CCCCCCCCCCC1CN1CCOCC1` (stereo not given) reads inactive: > 100 µM; that for `COc1cccc(/C=N/n2c(C)n[nH]c2=O)c1`, inactive: > 100 µM; that for `CCc1n[nH]c(=O)n1/N=C(\C)c1ccc([N+](=O)[O-])cc1`, inactive: 84.9 µM.

As for `OC1(C(Sc2cc(C(F)(F)F)cc(C(F)(F)F)c2)Sc2cc(C(F)(F)F)cc(C(F)(F)F)c2)C=CCCC1` (stereo not given), the GI50 is inactive: 6.78 µM. As for `CCOC(=O)N/N=C(\CC)OCC`, the GI50 is inactive: > 100 µM. As for `c1ccc(C2=NC3OC2c2ccccc23)cc1` (stereo not given), the figure is inactive: > 10 µM; as for `CCCCCC(O)[C@H]1C(=O)C[C@@H](O[Si](C)(C)C(C)(C)C)[C@@H]1/C=C/CCOCc1ccccc1` (stereo not given in full), inactive: 16.9 µM. As for `O=C1c2cc([N+](=O)[O-])cc3cc([N+](=O)[O-])cc(c23)C(=O)N1CCCNCCNCCCN1C(=O)c2cc([N+](=O)[O-])cc3cc([N+](=O)[O-])cc(c23)C1=O`, the figure is active: 0.233 µM. Take `C=C(CN)CO[Si](C)(C)C(C)(C)C`: the GI50 is inactive: > 100 µM.

Turning to `CCCCC/C=C1\CCC(CN(C)C)C1=O` (stereo not given), the GI50 was inactive: 21.6 µM.

Take `CSc1ccc(NC(=O)C2c3[nH]c4ccccc4c3C3CCC(C(C)(C)C)CC3C2C(=O)O)cc1` (stereo not given): the GI50 was inactive: 25 µM. The result for `Cc1cccc(Nc2nc3ccccc3nc2NS(=O)(=O)c2ccccc2)c1` reads inactive: 37.5 µM; that for `COc1ccc(C(c2ccccc2C(=O)O)c2ccc(OC)c3ccccc23)c2ccccc12`, inactive: 14.6 µM. The result for `O=C(O)CSC1=NCCN1` reads inactive: > 100 µM; that for `COc1ccc2oc(=O)c3c(c2c1C)OC(C)(C)C=C3`, inactive: > 100 µM. On to `CCc1ccccc1NC(=O)C(=O)C1C(=O)N(c2ccccc2)N=C1N` (stereo not given), for which the GI50 is inactive: > 100 µM. As for `CCOC(=O)c1cc2c3c(c(O)c(OC)c2s1)N(C(=O)c1cc2c4c(c(O)c(OC)c2s1)N(C(C)=O)CC4)CC3`, the figure is inactive: > 100 µM; as for `N=C(N)/N=C(\N)Nc1cnccn1`, inactive: > 100 µM. As for `CNc1ccc(N)cc1C(=O)N1CCC[C@H]1CO`, the figure is inactive: > 100 µM; as for `CNC(=O)OCc1c(CO)nc(SC)n1C`, inactive: > 100 µM.

Take `Cc1cc(=O)n2nc(CSc3nnc(Sc4cc(O)ccc4O)s3)sc2n1`: the GI50 was inactive: > 100 µM. For the compound `CCP(C)(=O)CC`, the GI50 was inactive: > 100 µM. As for `CC(=O)N1CCN(C23OC4(N5CCN(C(C)=O)CC5)C5C6CC(C7C6C4C72)C53)CC1` (stereo not given), the figure is inactive: > 100 µM. With `CCC(C)C1NC(=O)C(NC(=O)c2c3nc4c(C(=O)NC5C(=O)NC(C(C)CC)C(=O)N6CCCC6C(=O)N(C)CC(=O)N(C)C(C(C)C)C(=O)OC5C)ccc(C)c4oc-3c(C)c(=O)c2O)C(C)OC(=O)C(C(C)C)N(C)C(=O)CN(C)C(=O)C2CCCN2C1=O` (stereo not given), the GI50 was inactive: 4.24 µM.

For the compound `C/C=C\C(C)=C/C(C)C(=O)CC(O)CC1CC(=O)NC(=O)C1` (stereo not given), the GI50 was inactive: 21.3 µM. In the case of `C=CC(=O)NC(=N)NC#N`, the GI50 was inactive: 177 µM. As for `Cn1cc(C(=O)C2CCCCC2)ccc1=O`, the figure is inactive: > 100 µM; as for `CC(C)OP(=O)(OC(C)C)C(C(C)C)N(C)/C(F)=N/C(F)(F)F` (stereo not given), inactive: > 100 µM; as for `c1cn(C23C4C5C6C4C2C6C53)cn1` (stereo not given), inactive: > 100 µM.

Regarding `Cc1ccccc1N(CCC#N)C1=NN(C(=O)CC(=O)Nc2ccccc2)C(c2ccccc2)C1` (stereo not given), the GI50 is inactive: > 100 µM. As for `CC1C(O)=C(O)c2ccccc2N1O` (stereo not given), the figure is inactive: > 100 µM.

For the compound `CC1C[C@@H]2C(=O)NC(=O)[C@@H]2c2c1c1ccccc1n2C` (stereo not given in full), the GI50 was inactive: > 100 µM. For the compound `Cc1cc(NC(=O)C2C3C=CC(O3)C2C(=O)O)no1` (stereo not given), the GI50 was inactive: > 100 µM. Regarding `O=C1/C(=C/c2ccc(O)cc2)Oc2ccccc21`, the GI50 was inactive: > 100 µM. As for `COC(=O)C(=O)C(C(=O)C(=O)Nc1ccc(C)cc1C)c1nc2ccc(Cl)cc2nc1O` (stereo not given), the figure is inactive: > 100 µM. For the compound `COC(=O)C(Cc1nc2ccccc2nc1O)C(=O)C(=O)Nc1cc(C(F)(F)F)ccc1Cl` (stereo not given), the GI50 was inactive: 15.5 µM. The result for `CC(C)=CCC[C@@H](C)c1c2ncc[nH]c-2c(C)c(=O)c1O` reads inactive: 26.3 µM; that for `CCNc1ccc2c(c1)Cc1ccccc1-2`, inactive: > 100 µM. As for `O=C(CC(=O)n1nc(-c2ccccc2)c(/N=N/c2ccccc2Cl)c1-c1ccccc1)Nc1ccc(Cl)cc1`, the figure is inactive: > 100 µM; as for `COc1cc(OC)c2c(=O)c3cccc([N+](=O)[O-])c3n(C)c2c1`, inactive: > 100 µM.

`O=C(C(=O)n1ccc2ccccc21)c1c[nH]c2ccccc12`: the GI50 is inactive: > 10 µM. As for `CC/C=C\C/C=C\C/C=C\CCCCCCCC(=O)OC(COC(=O)CCCCCCCCCCCCCCCCC)COC1OC(CO)C(O)C(O)C1O` (stereo not given), the GI50 is inactive: > 25 µM.

Regarding `O=C(N/N=C/c1ccc(Cl)cc1)c1c(Cl)c(Cl)c(Cl)c(Cl)c1-c1nc2ccccc2[nH]1`, the GI50 was inactive: > 100 µM. The result for `CC(C)c1c(O)ccc2c1CCC1C(C)(C)CCCC21C` (stereo not given) reads inactive: 18 µM; that for `CC(C)CNC(=O)Cn1c2c(c3ccccc31)CCCC2`, inactive: 35.7 µM. For `O=C1C(Br)=C(Br)C(=O)c2c(O)ccc(O)c21`, the GI50 was inactive: 21.2 µM. As for `CN(C)CCNc1nc2c(no[n+]2[O-])c2ccccc12.[O-][Cl+3]([O-])([O-])O`, the figure is inactive: 21.9 µM; as for `N#CCc1cccc(CC#N)c1Br`, inactive: > 100 µM. As for `CCN(CC)c1c(C(=O)/C=C/c2ccc(OC)cc2)c(-c2ccccc2)nn(C)c1=O`, the figure is inactive: 16.9 µM; as for `N#Cc1c(-c2ccc(Cl)cc2)c(C#N)c(=O)n(NS(=O)(=O)c2ccccc2)c1S`, inactive: > 100 µM. For `CC[C@H](C)C1=C(OC(C)=O)[N@+]2([O-])Oc3ccc(-c4c(O)c(O)c(-c5ccc(OC(C)=O)cc5)c(OC(C)=O)c4OC(C)=O)cc3O[C@]2([C@@H](C)CC)C(=O)N1O`, the GI50 is inactive: 41.6 µM. For `COc1ccc(/N=N/c2ccc3oc(=O)c(C(=O)Nc4ccc(OC)cc4)cc3c2)cc1`, the GI50 is inactive: 18.9 µM. Take `CC1/C(=N/O)CC(c2ccccc2)N(N=O)C1c1ccccc1` (stereo not given): the GI50 was inactive: > 100 µM. The result for `CC1OC(OC2C(O[C@H]3CC[C@@]4(C)C(=CC[C@H]5[C@@H]6C[C@@H]7O[C@]8(CC[C@@H](C)CO8)[C@@H](C)[C@@H]7[C@@]6(C)CC[C@@H]54)C3)OC(CO)C(OC3OC(CO)C(O)C3O)C2O)C(O)C(O)C1O` (stereo not given in full) reads active: 1 µM; that for `Nc1nc(SCc2ccc([N+](=O)[O-])cc2)nc2c1ncn2C1OC(COP(=O)(O)O)C(O)C1O` (stereo not given), inactive: > 100 µM. As for `CCN(CC)CCCN1CCc2c([nH]c3ccccc23)C1c1cccnc1` (stereo not given), the GI50 is inactive: > 100 µM. With `Nc1cccc(C2CCCc3c2[nH]c2ccccc32)c1` (stereo not given), the GI50 was inactive: 19.4 µM. The result for `C[N+](C)(N)Cc1csc(-c2ccc(Cl)cc2)n1` reads inactive: > 100 µM; that for `CN1CC[C@@H](c2c(O)cc(O)c3c(=O)cc(-c4ccccc4Cl)oc23)[C@@H](O)C1`, active: 0.0553 µM; that for `O=C1C=CC[C@H](/C=C/C[C@@H](O)C[C@H](O)/C=C/c2ccccc2)O1`, inactive: 7.67 µM. As for `Cc1cc(O)nc(NN2C(Cl)C(=O)C2c2ccco2)n1` (stereo not given), the GI50 is inactive: 35.9 µM.

On to `NNC(=O)c1cccc2c1Oc1ccccc1S2`, for which the GI50 was inactive: > 100 µM.

Take `CC1(C)OCC(C2OC(OC(=O)c3ccc([N+](=O)[O-])cc3)C3OC(C)(C)OC23)O1` (stereo not given): the GI50 was inactive: > 100 µM. Consider `O=C(c1ccccc1)c1ccc(-n2c3ccccc3c3ccc4c(c32)C(=O)C=CC4=O)cc1`, for which the GI50 is inactive: 20 µM. For the compound `O=C(/C(=N/Nc1ccccc1)c1ccc([N+](=O)[O-])cc1)c1ccc([N+](=O)[O-])cc1`, the GI50 was inactive: > 100 µM. The result for `Cc1cc(Cl)ccc1N1C(=O)C(=O)C(c2nc3ccccc3s2)/C(=N\NC(=O)c2ccccc2O)C1=O` (stereo not given) reads inactive: > 100 µM; that for `COc1ccc2cc3c4cc(OC)c(OC)cc4ccn3c2c1`, inactive: > 100 µM; that for `O=C(O)C1=NN(c2ccc(S(=O)(=O)O)cc2)C2(C1)SCC(=O)N2c1nc2ccccc2s1` (stereo not given), inactive: > 100 µM.

Take `COc1ccc(N[C@@H]2c3cc4c(cc3C(c3cc(OC)c(O)c(OC)c3)[C@H]3C(=O)OCC32)OCO4)cc1OC` (stereo not given in full): the GI50 was inactive: > 34 µM. As for `CC(=O)O[C@]1(C)CCC2C(C)C(=O)OC2C2C(C)[C@@H](O)CC21` (stereo not given in full), the figure is inactive: 46.2 µM; as for `CCOC(=O)c1ccc(N[C@@H]2c3cc4c(cc3C(c3cc(OC)c(O)c(OC)c3)[C@H]3C(=O)OCC32)OCO4)cc1O` (stereo not given in full), inactive: 2.2 µM; as for `C[C@@]12CCCC(=O)N1[C@@H](CO)C(c1ccccc1)O2` (stereo not given in full), inactive: > 100 µM. The result for `C=COC(=O)N[C@H]1CCc2cc(OC)c(OC)c(OC)c2-c2ccc(SC)c(=O)cc21` reads active: < 0.01 µM; that for `O=C(CCc1ccc(O)cc1)c1c(O)cc(O)cc1OC1OC(CO)C(O)C(O)C1O` (stereo not given), inactive: > 100 µM.
